In the supplement of paper PMC10338343:
± gives the standard deviation. In all, about 6,600 sequences were measured (“pre-steady-state target cleavage rate”: median about 0.07, highest 2% from about 0.72 on). This is a selection; strong and weak results do not stand in their true shares.

Each sequence was assayed on MIWI (PIWIL1) piRISC loaded with Kctd7 piRNA (30 nt) (assay: pre-steady-state target cleavage rate (min^-1); MIWI and MILI are mouse PIWI proteins and EfPiwi is from a freshwater sponge; tags in brackets are library labels; higher = faster piRNA-guided slicing of the target). Details: guide: Kctd7 piRNA 5'p-UGUUAAUCUCUCAGAGAAGGUGACAGUGAU; auxiliary factor: 500 nM mouse GTSF1.
Experimental: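 Cleave-'n-Seq: a library of target RNAs (target site embedded in constant flanks, ACAGCATTCCGCGTTAGTGATATCCG... 5' flank; DNA-blocked outside the site) at 0.1 nM was incubated with 1 nM active mouse MILI or MIWI piRISC (synthetic 5'-monophosphorylated piRNA guide) with or without 500 nM mouse GTSF1 at 33 °C for 1 min to 16 h. Uncleaved targets were sequenced and normalised to non-target controls, and the pooled three trials were fitted to a burst-and-steady-state model to give the pre-steady-state cleavage rate (min^-1; k3 is constrained to at most 1e-4). Sequence is the target site only; target names encode pairing extent (gX:gY) and contiguous / 1-mismatch / 2-mismatch / bulge geometry. Fits with R² ≤ 0 are excluded.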

Sequence	pre-steady-state target cleavage rate
UAGUGACUCACCAUUCUCUGAGAGAUUAACA	0.141 ± 0.014
UAGUGAGUCUCCUUCUCUGAGAGAUUUUGA	0.0143 ± 0.0051
UAGUCUGUCCCCUUCUCUGAGAGAUUAACA	0.597 ± 0.041
UAGUCUGUCACCUUCUCUGAGAGAAUAUGA	0.0243 ± 0.01
UAGUCUGUCACCUUCUCUGUGAGAUUAUGA	0.0115 ± 0.0063
UAGUGUGUCACCUUCUCAGAGAGAAUAACA	0.114 ± 0.03
UAGUGACAGUGGAAGUCUGACACAUUAACA	< 0.0001
UAGUGAGACACCUUCUCUGACAGAUUAACA	0.191 ± 0.022
UAGACUGUCACCUUCUCUCAGAGAUUUACA	0.0796 ± 0.011
UUCACUCAGACCUUCUCUGAGAGAUUAUGA	0.0052 ± 0.0036
UAGACAGUCACCUACUCUGAGAGAUUAACA	0.575 ± 0.031
UAGUGACACACCUUCUCUGAGAGAUAUUCA	0.0426 ± 0.012
UUCACUGACACCUUCUCUGUGAGAUUAACA	0.169 ± 0.015
UAGACUGUCACCUUCUCUGAGAGAUGAACA	0.205 ± 0.033
UAGUGUGUCACCUUCACUGAGAGAUAUUGA	0.0216 ± 0.0079
UAGUCUCUCACCUUCUCUGAGAGAUUAUCA	0.059 ± 0.017
UAGUGACACAGCUUCUCUGUGAGAUUAACA	0.0274 ± 0.0044
UAGUCUGUCACGAUCUCUGAGAGAUUAUGA	0.00666 ± 0.0043
AUCACUGUGAGCUUCUCUGAGAGAUUAACA	0.618 ± 0.033
UAGACUGUCACCUUCUGUGAGAGAUAAACA	0.261 ± 0.022
UUCACUGUCACCUUCUCUGAGAGAAUAAGA	0.219 ± 0.064
UACACUGUCUCCAUCUCUGAGAGAUUAACA	0.557 ± 0.031
UAGUGACACACCUUCUCUGAGAGAUUACACA	0.205 ± 0.034
UAGUGACUCCCUUCUCUGAGAGAUUAACA	0.0663 ± 0.013

Sequence	pre-steady-state target cleavage rate
UAGUGUGUCAGCUUCUCAGAGAGAUUAACA	0.209 ± 0.014
AUCAGUGUCACCUUCUCUGAGAGAUAAACA	0.348 ± 0.038
UAGUGAGUCACCUUCUCUGAGAGAUAAUGA	0.04 ± 0.014
UAGUGACUCACGUUCUCUGAGAGAUAAACA	0.119 ± 0.022
UAGUGACACUCCUUCUCUGAGAGAUUUACA	0.104 ± 0.016
AUCACUGUCACCUAGUCUGAGAGAUUAUGA	0.0913 ± 0.023
UACACUGAGUCCUUCUCUGAGAGAUUAUGA	0.0326 ± 0.0095
AUCACUGUGACCUUCUCUGAGUGAUUAACA	0.0276 ± 0.0046
AUCACUGUCAGCUUCUGUGAGAGAUUAACA	0.577 ± 0.028
UAGUGAGUCACCUUCACUGAGAGAUUUUGA	0.0525 ± 0.017
UAGUCUGUCACCAAGUCUGAGAGAUUAACA	0.112 ± 0.016
UAGUGACAGUCCUUCUCUGAGAGAUUAAGCA	0.0248 ± 0.0054
UAGUGACACACGUUCACUGAGAGAUUAACA	0.12 ± 0.019
UAGACUGUCACCAUCUCAGAGAGAUUAACA	0.0694 ± 0.0084
UAGACUGUCACCUUCUCUGAGAGUUAAACA	0.0471 ± 0.011
UAGUGACUCACCUUCUCUGACAGAUUUACA	0.0724 ± 0.013
UUCACUGUCAGGAUCUCUGAGAGAUUAAGA	0.0127 ± 0.0029
UAGUCUGUCACCUUCUCUGAGAGAUUAACCA	0.459 ± 0.02
UAGUGACUCACCUUCUCUGAGAGAAUAACA	0.251 ± 0.037
UUCACUGUCACCUAGUCUGAGAGAUUAAGA	0.0716 ± 0.014
UACUGUGUCACCUUCUCUGAGAGAUAUUGA	0.035 ± 0.0099
AACACUGUCACCUACUCUGAGAGAUUAACA	0.687 ± 0.037
UUCACUGUCACCUUCUCUGAGAGCAUUAACA	0.373 ± 0.029
UAGUGACAGACCUUCUCUGAGAGAUUAGACA	0.0939 ± 0.022

Sequence	pre-steady-state target cleavage rate
AUCACUGAGUCCUUCUCUGAGAGAUUAAGA	0.104 ± 0.021
UACACUGUCACCUUCUCUGACAGAUAUUGA	0.00642 ± 0.0045
UACACUGUCACCUUCUCUGAAGAGAUUAACA	0.00941 ± 0.005
UUCACUGUCACCUUCUCAGAGAGAUUAAGA	0.0728 ± 0.016
UACACUGAGUCCUUCUCUGAGAGAUUUUGA	0.0105 ± 0.004
UUCACUGUCACGUUCUCUGAGACAUUAACA	0.0142 ± 0.0036
UAGUGUGUCACCUUCUCUCAGAGAUUAUGA	0.00794 ± 0.0052
UUCACUGUCACCUUCACUGAGAGAUAUUGA	0.189 ± 0.05
UACACUGUCACGUUCUCUGAGAGAUUUUGA	0.00804 ± 0.004
UACACUGUCAACCUUCUCUGAGAGAUUAACA	0.193 ± 0.016
UUCACUCUCACCUUCUCUGAGAGAAUAACA	0.163 ± 0.026
UAGUCUCUCACCUUCUCUGAGAGAUUAACA	0.0594 ± 0.01
UACUGAGUCACCUUCUCUGAGAGAUUAUGA	0.144 ± 0.025
UAGAGUCUCACCUUCUCUGAGAGAUUAACA	0.655 ± 0.033
UUCACUGUCAGCUACUCUGAGAGAUUAACA	0.574 ± 0.037
UAGUGUGUCACGUUCUCUGAGAGAUUAUCA	0.134 ± 0.014
UACACUGUCACCUUCUCACAGAGAUUAAGA	0.00665 ± 0.0053
UAGUGACACAGCUUCUCUGAGAGAAUAACA	0.0206 ± 0.0056
UAGUGACUCAGCUUCUCUGAGAGAUUUACA	0.054 ± 0.006
UUCACUGUCAGCUUCACUGAGAGAUUAACA	0.529 ± 0.026
UACACUGUCACCUUCUCUGAGAGUAAAACA	0.0984 ± 0.023
UAGUGACACACCUUCUCUGAGAGAUUAACG [g2:g22:cont:t1G]	0.373 ± 0.029
UAGACUGUCACCUUCUCUCAGAGUUUAACA	0.0473 ± 0.0063
UAGUCUGUCUCCUUCUCUGAGAGAUUAUGA	0.0296 ± 0.0076

Sequence	pre-steady-state target cleavage rate
UAGUGACUCACCUUCACUGAGAGAUUAAGA	0.216 ± 0.035
UAGUGACUCACCUUCUCUGAGAGAUUUAGA	0.0446 ± 0.01
AUGACUGUCACCUUCUCUGAGAGAUAUUGA	0.00608 ± 0.0033
UAGUGACUCACCUUCUCUGAGAGAUUAAACA	0.448 ± 0.045
UAGUGACACACCAUUCUCUGAGAGAUUAACA	0.245 ± 0.022
UAGUGAGUCACCUUCACUGAGAGAUUAUCA	0.305 ± 0.055
UAGUGUGUCACCUUCUCUGAGAGAUUCACA	0.251 ± 0.046
UAGUGACAGACCUUCUCUGAGUGAUUAACA	0.0113 ± 0.0027
UAGUGUGUCACCUACUCUGAGAGAUUUUGA	0.0192 ± 0.0063
AUCACUCAGACCUUCUCUGAGAGAUUAAGA	0.00431 ± 0.0034
UAGUGUGUCACCUUCUCUGAGAGAUAUACA	0.0964 ± 0.019
UAGUGUGUCACCUUCUCUGAGAUAUUAACA	0.24 ± 0.027
UUCACUGUCAGCUUCUCUGAGAGAUUAUGA	0.0364 ± 0.0074
UAGUGACACACCUUCUCUGAGAGAUUAGACA	0.149 ± 0.021
UAGUGACACUCCAUCUCUGAGAGAUUAACA	0.0253 ± 0.007
UAGACUGAGUCCUUCUCUGAGAGAUUAACA	0.123 ± 0.014
UAGUGACUCACCUUCUCUGAGAGAUUAAGCA	0.25 ± 0.032
AUCACUGUCACCUUCCUCUGAGAGAUUAACA	0.523 ± 0.029
UAGUCUGUCACCAACUCUGAGAGAUUAACA	0.339 ± 0.041
UAGUGACUCACCUUCUCUGAGAGAUUACCA	0.149 ± 0.023
UACACUGUCACCUUCUGUGAGAGAUAAACA	0.0876 ± 0.012
AUCACUGUCACCUUCUCCGAGAGAUUAACA	0.45 ± 0.069
AUCACAGUCACCUUCUCAGAGAGAUUAACA	0.526 ± 0.036
UAGUGACUCACCUUCUCUGAGAGAAUUACA	0.0897 ± 0.027

Sequence	pre-steady-state target cleavage rate
UAGUGUGUCACCUUUCUCUGAGAGAUUAACA	0.384 ± 0.036
UUCACUCACACCUUCUCUGAGAGAUAUUGA	0.0372 ± 0.011
UAGUCUGUCACCUUCUCUGAGAGAAAUAGA	0.00945 ± 0.0047
UAGUGAGAGACCUUCUCUGAGAGAUUAUGA	0.0121 ± 0.0059
UAGUGACAGUCCUUCUCUGAGAGAUUGACA	0.0589 ± 0.013
UAGUGACAGACCUUCUCUGGAGAUUAACA	0.00338 ± 0.003
UAGUGACAGUGGAAGUCUGAGAGAUUGACA	< 0.0001
AUCACACUCACCUUCUCUGAGAGAUUAUGA	0.0459 ± 0.012
UAGUCUGUCACCUUCUCUGAGAGAAUUUGA	0.0883 ± 0.026
UAGUGACAGUGGAAGAGACUGAGAUAUAACA	< 0.0001
UAGUGAGUCACCUUCUCUGAGAGAUUACACA	0.236 ± 0.036
UAGUGACAGUGGAAGAGACAGCAGAUUAACA	0.0035 ± 0.003
UAGUGAGUCACCUUCCCUGAGAGAUUAACA	0.443 ± 0.083
UAGUGAGUCACCUUCUCUGAGAGAUUUAACA	0.268 ± 0.031
UAGUGAGUCACCUUCUCUGUGAGAAUAACA	0.0538 ± 0.01
UAGUGACAGUGCUUCCCUGAGAGAUUAACA	0.0102 ± 0.0029
UUCACUGUCACCUUCUCUGAGAGAUAACA	0.136 ± 0.02
UAGUGACACACCUACUCUGAGAGAAUAACA	0.0111 ± 0.0041
UAGUCUGUCACCUUCACUGAGAGAUAUUGA	0.0402 ± 0.014
UAGUGACAGACCUUCCUCUGAGAGAUUAACA	0.0189 ± 0.004
UAGUGAGUCACCUUCUCUGAGACUUUAAGA	0.0152 ± 0.0068
UAGUGACACACCUUCUGUGAGAGAUUUUGA	0.00776 ± 0.0045
UAGUGACACACCUUCUCUGAGAGAAUUAACA	0.158 ± 0.026
UUGACUGACACCUUCUCUGAGAGAUUAACA	0.577 ± 0.026

Sequence	pre-steady-state target cleavage rate
UUCACUGUCACCUUCUGAGAGAGAUUAAGA	0.0258 ± 0.011
UAGUCUGUCACCUUCUCAGACAGAUUAACA	0.0153 ± 0.0044
UAGUGAGUCACCUUCUCUGAGAAAUUAACA	0.237 ± 0.026
UAGAGUGUCACCUUCUCAGAGAGAUUAACA	0.564 ± 0.029
AUGACUGUCACCUUGUCUGAGAGAUUAACA	0.443 ± 0.074
UAGUGACAGUGGAACUCUGAGAGAUUGACA	< 0.0001
AUCACAGUCAGCUUCUCUGAGAGAUUAACA	0.722 ± 0.03
UAGAUGUCACCUUCUCUGAGAGAUUAACA	0.696 ± 0.032
UUGUGUGUCACCUUCUCUGAGAGAUAUUGA	0.0658 ± 0.021
AUCACUGUCACCUUCUCUGAGAGACUAACA	0.277 ± 0.024
UAGUGACACAGCUUCUCUGAGACAUUAACA	0.0143 ± 0.0027
AUCACUGUCACCUAGACUGAGAGAUUAAGA	0.0119 ± 0.0058
UAGACUGUCACCUUCUCUGACAGUUUAACA	0.00392 ± 0.003
UUCACUGUCACCUUUCUCUGAGAGAUUAACA	0.581 ± 0.026
UAGACACACACCUUCUCUGAGAGAUUUUGA	0.0522 ± 0.017
UAGUGAGUCACCAUCUCUGAGAGAUUAACA	0.673 ± 0.046
UAGUCUGUCACCUUCUCUGAGAGAAUAUCA	0.101 ± 0.027
UAGUGUGUCUCCUACUCUGAGAGAUUAACA	0.211 ± 0.018
UAGUGAGACAGCUUCUCUGAGAGAUUAACA	0.226 ± 0.014
UAGUGACACACCUUCUCUCUGAGAUUAACA	0.00464 ± 0.0031
UACAGACUCACCUUCUCUGAGAGAUUAACA	0.587 ± 0.045
UAGUGACUCACCUUCUCUGUGAGAUUUACA	0.0412 ± 0.0086
UACACUGUCACCUUCUCUGAGAUAUUAACA	0.353 ± 0.042
UAGUGAGUGACCUUCUCUGAGAGAUUAUCA	0.154 ± 0.021
